Here are results for 70 compounds from PubChem BioAssay AID488969 (Vanderbilt High Throughput Screening Facility, 2010).

Over roughly 110,000 compounds, “z-score” has its median near -0.1; the highest 2% begin near 2. The list shows a part of the results. The source made the active and inactive calls.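 Rule for the calls: active = z-score in the third read window above 3 or below -3; inactive = the rest.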

This assay deals with Metabotropic glutamate receptor 8 (Rattus norvegicus) (UniProt P70579). As to the kind of experiment: mGluR8 Gi/Go-coupled signaling modulation – cell-based, rat, thallium flux, HTS, primary screen (AID 488969). The conditions noted are these: HEK293 rat mGluR8, GIRK (G protein-gated inwardly rectifying potassium channel) thallium flux, FluoZin2; at 10 µM; stronger effect = higher value; submaximal glutamate (EC20) added with thallium.
Chain of UniProt P70579 (P70579 whole entry, looked up): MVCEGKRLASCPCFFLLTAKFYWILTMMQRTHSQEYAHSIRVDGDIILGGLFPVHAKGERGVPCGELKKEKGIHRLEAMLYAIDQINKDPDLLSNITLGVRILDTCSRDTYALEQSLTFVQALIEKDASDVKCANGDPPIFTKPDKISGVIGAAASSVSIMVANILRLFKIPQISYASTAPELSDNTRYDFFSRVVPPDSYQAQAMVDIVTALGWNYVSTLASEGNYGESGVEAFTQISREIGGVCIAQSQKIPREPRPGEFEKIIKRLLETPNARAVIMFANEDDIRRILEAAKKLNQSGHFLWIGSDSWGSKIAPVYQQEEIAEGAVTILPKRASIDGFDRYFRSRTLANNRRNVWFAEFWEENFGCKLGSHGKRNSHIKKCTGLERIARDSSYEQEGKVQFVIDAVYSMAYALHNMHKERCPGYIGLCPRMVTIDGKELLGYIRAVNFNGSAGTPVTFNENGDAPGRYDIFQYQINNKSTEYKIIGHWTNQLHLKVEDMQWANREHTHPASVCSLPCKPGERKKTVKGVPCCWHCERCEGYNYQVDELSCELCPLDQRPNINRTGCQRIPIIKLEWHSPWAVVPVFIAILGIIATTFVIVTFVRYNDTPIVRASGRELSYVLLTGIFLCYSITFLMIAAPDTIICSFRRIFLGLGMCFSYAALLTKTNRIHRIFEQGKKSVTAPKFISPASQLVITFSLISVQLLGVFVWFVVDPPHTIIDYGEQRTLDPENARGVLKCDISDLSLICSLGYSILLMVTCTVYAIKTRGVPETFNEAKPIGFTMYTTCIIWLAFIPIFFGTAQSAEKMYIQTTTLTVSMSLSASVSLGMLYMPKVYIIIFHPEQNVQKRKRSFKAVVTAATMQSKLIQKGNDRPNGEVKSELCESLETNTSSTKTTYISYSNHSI
Compound `O=C(O)CCN=C1CCCc2ccccc2N1` came in with a z-score of 0.441.

`COc1cc(S(=O)(=O)Nc2cccnc2)ccc1F` showed a z-score of -0.219.

`O=S(=O)(Cc1ccccc1)N1CCCC1` registered a z-score of -0.328.

In the case of `COc1cccc(C(=O)N2N=C(c3cccc(OC)c3)CC2(O)C(F)(F)F)c1` (stereo not given), the z-score was 0.00352.

For `CCOC(=O)C1CCN(C(=O)C23CC4CC(CC(C4)C2)C3)CC1`, the z-score was found to be 0.212.

As for `C/C=C/c1ccc(OCCCNC(C)CC)c(OC)c1` (stereo not given), the z-score turned out to be 0.208.

`O=C1O/C(=C\C(=O)N2CCOCC2)c2ccccc21` gave a z-score of 0.364.

For the compound `O=C1CC(N2CCN(c3ccc(C(=O)c4ccc(F)cc4)cc3)CC2)C(=O)N1` (stereo not given), the z-score is -1.07.

`Cc1c(C(=O)NCCN2CCOCC2)sc2nc(-c3ccc(F)cc3)cn12` showed a z-score of -0.908.

`Cc1cccc(C)c1NC(=O)CSc1nnnn1-c1ccc(C(=O)O)cc1` gave a z-score of -0.332.

In the case of `Cc1ccc2nc(NCCCN3CCOCC3)c(C=NCCCN3CCOCC3)c(=O)n2c1`, the z-score was -0.174.

As for `O=C(Nc1ccc(-c2noc(-c3ccccc3F)n2)cc1)c1cccs1`, the z-score was -0.126.

Compound `CCOc1ccc(N=Cc2c(C)[nH]n(-c3nc4ccccc4[nH]3)c2=O)cc1` showed a z-score of 0.0911.

`COc1cccc(C(=O)N/N=C/c2cn[nH]c2-c2ccc(OC)cc2OC)c1` came in with a z-score of -1.31.

`Cc1cc(C)cc(C(=O)NC(=S)Nc2ccc3[nH]c(=O)[nH]c3c2)c1` registered a z-score of -0.217.

`N#CCCN/N=C(\Cc1nc2ccccc2[nH]1)c1ccccc1` had a z-score of 0.0244.

Regarding `COc1cc(OC)c2nc(C)c3c(c2c1)N(c1ccc(O)cc1)CC3`, the z-score was active: 3.3.

Turning to `COc1cccc(C2(c3cccc(OC)c3)CC2C(=O)Nc2ccccc2Cl)c1` (stereo not given), the z-score came to 0.0271.

Take `O=C1CSC(c2cn(-c3ccccc3)nc2-c2cc3ccccc3oc2=O)N1Cc1ccco1` (stereo not given): the z-score was 0.104.

Regarding `CC(C)n1nnnc1SCC(=O)c1ccc2c(c1)OCCO2`, the z-score is -0.226.

In the case of `CN(C)S(=O)(=O)c1ccc(N2CCCC2)c(C(=O)Nc2nc(-c3ccc(F)cc3)cs2)c1`, the z-score was -0.117.

For `COCCn1c(SCc2cccnc2)nnc1-c1ccco1`, the z-score is -0.142.

`Cn1cc(C(=O)N2CCN(C(=O)c3ccco3)CC2)c2c3ccccc3n(C)c2c1=O` registered a z-score of -0.065.

For `NS(=O)(=O)c1ccc2c(c1)C1C=CCC1C(C1CC=CCC1)N2` (stereo not given), the z-score is -0.272.

The compound `Cc1cc(C(F)F)n2nc(C(=O)Nc3sc4c(c3C#N)CCC(C)C4)nc2n1` (stereo not given) came in with a z-score of 0.262.

With `Cc1nc(CS(=O)(=O)c2ccccc2)cc(Sc2ccc(Cl)cc2)n1`, the z-score was -0.767.

`O=C(Nc1cccc(S(=O)(=O)Nc2ccc(Cl)cc2)c1)c1ccc(Cl)nc1` showed a z-score of 0.238.

In turn, `N/C(=N\c1nc2ccccc2o1)NC(=O)c1ccccc1` displayed a z-score of -0.339.

`CCOC(=O)c1cnc2ccc(OCC)cc2c1N(C)Cc1ccccc1` displayed a z-score of -0.413.

As for `COc1ccc(-n2nc(C(=O)Nc3ccc4c(c3)OCO4)c3c4ccccc4n(C)c3c2=O)cc1`, the z-score is -0.137.

For `Cc1cc(NS(=O)(=O)c2ccc(NC(=O)Nc3ccccc3)cc2)no1`, the z-score stood at 0.82.

Compound `C=CCc1cc(C)ccc1OCCn1ccnc1` registered a z-score of -0.488.

For the compound `CCOC(=O)C1=C(c2ccccc2)N2CCS(=O)(=O)N=C2S1`, the z-score worked out at 0.367.

As to `COCCCNC(=S)NNC(=O)c1ccoc1C`, the z-score is 1.33.

`CCOC(=O)c1c(N)sc(=S)c2c1CCC2` registered a z-score of -0.542.

`CC(=O)Nc1ccc(S(C)(=O)=O)c(C)c1` returned a z-score of 0.46.

In turn, `Cc1ccc(N2C(=O)CC(Sc3ncn[nH]3)C2=O)cc1` (stereo not given) yielded a z-score of -0.0312.

On to `COc1ccc(C(=O)Nc2cc(OCc3ccccc3)c(Cl)cc2Cl)cc1`, for which the z-score was -0.094.

The compound `Cc1ccc(NC2=C(Cl)C(=O)OC2OC(=O)c2ccco2)c(C)c1` (stereo not given) had a z-score of -0.515.

For the compound `O=S1(=O)N=C(N/N=C/C=C/c2ccccc2)c2ccccc21`, the z-score came to 0.384.

Take `CC1(C)CC(=O)C2=C(C1)Nc1ccccc1NC2c1nc2ccccc2[nH]1` (stereo not given): the z-score is -0.113.

With `O=C1c2ccccc2C(=O)N1CCCCN(C(=O)c1cc([N+](=O)[O-])ccc1Cl)c1ccc(Cl)cc1`, the z-score is 0.201.

The compound `N#C/C(=C/c1ccc(Cl)cc1)NC(=O)c1ccccc1` gave a z-score of -0.268.

In turn, `CCOC(=O)c1nnsc1NC(C)=O` came in with a z-score of 0.312.

Consider `Cc1nnc(C)n1/N=C/c1cc(Br)cc(Br)c1O`, for which the z-score was -0.423.

With `CC1=C(C(=O)Nc2ccccc2)C(c2cccc([N+](=O)[O-])c2)Nc2nc3ccccc3n21` (stereo not given), the z-score is -0.0653.

`COC(=O)Nc1nnc(SCc2ccc(C)cc2)s1` displayed a z-score of 0.0636.

The compound `COc1ccc(-c2nn(-c3ccccc3)cc2/C=C/C(=O)OCC(=O)Nc2cccc(C#N)c2)cc1` showed a z-score of 0.732.

Compound `O=C(c1ccc(CS(=O)(=O)c2ccc(Br)cc2)o1)N1CCCCCC1` registered a z-score of -0.0821.

`COc1cc(NC(=O)c2ccc(C)cc2)c(OC)cc1NC(=O)CN1CCOCC1` came in with a z-score of -0.672.

In the case of `N#C[C@H]1[C@H](c2ccccc2)[C@](C#N)(C(=O)c2ccccc2)[C@@H]2C=Cc3ccccc3N21`, the z-score was -0.88.

Take `Cc1ccc(NC(=O)CSc2nc(-c3ccco3)cc(C(F)(F)F)n2)cc1C`: the z-score was -0.269.

In turn, `CCOC(=O)c1cc(NC(=O)CSc2nnc(CN3CCOCC3)n2C)ccc1Cl` showed a z-score of -0.865.

With `Cc1nn(C)cc1/C=C/C(=O)c1ccc(O)cc1`, the z-score is -0.127.

The compound `O=c1c2cnn(-c3ccccc3)c2nc(-c2cccs2)n1-c1cccc(Cl)c1` yielded a z-score of 0.0379.

In the case of `CC(C)(C)n1nnnc1C(c1cccs1)N(Cc1ccccc1)Cc1cccnc1` (stereo not given), the z-score is -0.249.

With `O=C(Cc1ccc(Cl)cc1)NCCN1CCCC1`, the z-score was -0.135.

Take `O=C(OCCN1C(=O)c2ccccc2C1=O)c1ccc(S(=O)(=O)N2CCCCCC2)cc1`: the z-score was -0.669.

Consider `C/C(CCc1oc2ccccc2c1-c1ccc(C)o1)=N/O`, for which the z-score was -1.

As for `CCOC(=O)c1nn(-c2ccccc2F)c(-c2ccccc2)c1C(=O)c1ccccc1`, the z-score is -0.234.

Regarding `Cc1ccc(CNCc2cc3c(C(C)(C)C)nn(-c4ccccc4)c3[nH]c2=O)cc1`, the z-score is -0.85.

On to `COc1ccc(OC)c(S(=O)(=O)Nc2cccc(F)c2)c1`, for which the z-score was -0.305.

With `CC(C)c1ccc(NC(=O)CCNS(=O)(=O)c2cccc3nsnc23)cc1`, the z-score amounted to 0.063.

As to `ON=C1/C(=N\O)CC2(C/C1=N/O)OCCO2`, the z-score is -0.211.

Compound `CCCCNC(=S)N(C)/N=C/c1c(C)[nH]c2ccccc12` showed a z-score of -0.214.

With `O=C(O)C=C1C2CC3CC(C2)CC1C3`, the z-score came out at 0.219.

Compound `O=C(CCCOc1ccccc1)Nc1cccc(C(=O)O)c1` gave a z-score of -0.363.

In turn, `COc1cc(NC(=O)C/C(C)=N/NC(=O)C(OC)c2ccccc2)c(OC)cc1Cl` (stereo not given) returned a z-score of -0.317.

Consider `CC(=O)Nc1nonc1-c1nc2ccccc2n1Cc1ccccn1`, for which the z-score was -1.12.

With `Cn1c(N)c(C(=O)COC(=O)c2cccc(S(=O)(=O)N3CCCCC3)c2)c(=O)n(C)c1=O`, the z-score was -0.62.
